{"source": "PubChem BioAssay AID1458", "about": "(National Center for Advancing Translational Sciences (NCATS), 2008)", "note": "About 5,900 (2.8%) of roughly 210,000 compounds were called active. The inconclusive results got no clear call from the source; some entries with a clear call stand among them for comparison. Calls come from the whole dose curve; as a rule, active = well fitted activation curve with a large enough effect; inconclusive = small, poorly fitted or top-dose-only effect; inactive = no such curve, though single readings can be large or run the other way. Potencies of inconclusive entries are doubtful fits and often do not repeat. Potency is the fitted concentration of half-maximal effect; tags give direction and shape of the fitted curve.", "data": [{"experiment": "qHTS Assay for Enhancers of SMN2 Splice Variant Expression; note: nearly all actives have a fitted effect of over 55% in size; for activity change, positive = activation: % of control where 0% means no effect", "settings": "HEK293 SMN2-luciferase splicing reporter, luminescence, 30-36 h; activity change, positive = activation: at 46.1 µM (top of the series)", "summary_of_the_method": "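HEK293 cells carry an SMN2 minigene-luciferase reporter in which exon 7 inclusion puts luciferase in frame. Cells were seeded at 2000 cells/well, attached for 10-12 hours, then exposed to compounds for 30-36 hours at 37C before ONE-Glo luminescence.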", "values": [{"smiles": "COc1cccc(NC(=O)CCS(=O)(=O)c2cccs2)c1", "Potency": "inconclusive: 22.4 µM [activator, single point]"}, {"smiles": "O=C(Nc1ccc2c(c1)CCC2)Nc1ccc2c(c1)OCO2", "Potency": "active: 12.6 µM"}, {"smiles": "Cc1cc(C)c2c(n1)nn1c(C)c(CCC(=O)Nc3cccc(C)c3C)c(C)nc21", "activity change, positive = activation": "inactive: 15%"}, {"smiles": "Cc1cc(C)n2nc(CNS(=O)(=O)c3cccc(Cl)c3)nc2n1", "activity change, positive = activation": "inactive: 3.41%"}, {"smiles": "CC(C)(C)c1ccc(OCc2ccc(C(=O)NCc3cccnc3)o2)cc1", "Potency": "inconclusive: 22.4 µM [activator, single point]"}, {"smiles": "COc1ccc(/C=C2\\OC(=O)c3c(OC)cccc32)cc1OC", "Potency": "inconclusive: 25.1 µM [activator, single point]"}, {"smiles": "CC(C)(C)C(=O)Nc1ccc(C(=O)NNC(=O)c2ccccc2)cc1", "activity change, positive = activation": "inactive: 7.62%"}, {"smiles": "CCN1CCN(c2nc(Nc3ccccc3)nc(N)c2[N+](=O)[O-])CC1", "Potency": "inconclusive: 5.01 µM [activator, partial curve, poor fit]"}, {"smiles": "CCN(C(=O)COC(=O)c1cccnc1Nc1ccccc1F)C1CCS(=O)(=O)C1", "note": "(configuration not stated)", "Potency": "inconclusive: 15.8 µM [activator, single point]"}, {"smiles": "O=C(N/N=C/c1ccc(Sc2nc3ccccc3[nH]2)o1)c1ccncc1", "activity change, positive = activation": "inactive: 0.0478%"}, {"smiles": "Cc1cccc(CCNC(=O)C2CCCN(S(=O)(=O)c3cnc[nH]3)C2)c1", "note": "(configuration not stated)", "Potency": "inconclusive: 3.55 µM [activator, single point]"}, {"smiles": "CCN(CC)S(=O)(=O)c1ccc(C(=O)NCc2ccc3c(c2)OCO3)cc1", "Potency": "inconclusive: 22.4 µM [activator, partial curve]"}, {"smiles": "COCCn1c(CCC(=O)Nc2ccc(OC)c(OC)c2)nc2cccnc21", "activity change, positive = activation": "inactive: 1.3%"}, {"smiles": "COc1ccc(C(=O)NCc2ccccc2)cc1S(=O)(=O)N1CCCc2ccccc21", "Potency": "inconclusive: 3.98 µM [activator, full curve, poor fit]"}, {"smiles": "CC(C)(C)Nc1nc(Cl)nc(NC(C)(C)C)n1", "Potency": "inconclusive: 0.0045 µM [activator, full curve, poor fit]"}, {"smiles": "COc1ccc(Cl)cc1CSc1n[nH]c(C)n1", "Potency": "inconclusive: 0.0316 µM [activator, full curve, poor fit]"}, {"smiles": "COC(=O)c1sc(NC(=O)Cc2cccs2)nc1C", "Potency": "inconclusive: 20 µM [activator, partial curve, poor fit]"}, {"smiles": "COC(=O)[C@@H]1[C@@H]2C[C@H]3c4[nH]c5cc(OC)ccc5c4CCN3C[C@@H]2C[C@H](OC(=O)c2cc(OC)c(OC)c(OC)c2)[C@H]1OC", "Potency": "inconclusive: 1.41 µM [activator, partial curve, poor fit]"}, {"smiles": "O=C(Nc1cc(Cl)ccc1O)c1cc(-c2ccc3c(c2)OCO3)on1", "Potency": "inconclusive: 15.8 µM [activator, single point]"}, {"smiles": "COc1ccc(C2C(C(=O)Nc3cccnc3)=C(C)Nc3nc(-c4ccc(OC)c(OC)c4)nn32)cc1", "note": "(configuration not stated)", "Potency": "inconclusive: 0.0089 µM [activator, full curve, poor fit]"}, {"smiles": "Cc1ccc(/C=C/C(=O)NC2CCCCCCC2)o1", "Potency": "inconclusive: 7.94 µM [activator, partial curve, poor fit]"}, {"smiles": "CC(=O)c1ccc(NC2OC(C)C(O)C(O)C2O)cc1", "note": "(configuration not stated)", "Potency": "inconclusive: 11.2 µM [activator, partial curve]"}, {"smiles": "Cc1cc(C)c(NC(=O)Cn2nnc3sc4c(c3c2=O)CCC(C(C)(C)C)C4)c(C)c1", "note": "(configuration not stated)", "activity change, positive = activation": "inactive: -3.55%"}, {"smiles": "COC(=O)c1ccc(NC(=O)CN(c2ccc(OC)cc2)S(C)(=O)=O)cc1", "Potency": "inconclusive: 17.8 µM [activator, partial curve, poor fit]"}, {"smiles": "Cc1nc2cc3ccccc3cc2c(=O)[nH]1", "Potency": "inconclusive: 20 µM [activator, partial curve, poor fit]"}, {"smiles": "CCCC1(CCC)NC(=O)N(CC(=O)c2cc(C)n(-c3ccc4c(c3)OCO4)c2C)C1=O", "Potency": "inconclusive: 2.24 µM [activator, partial curve, poor fit]"}, {"smiles": "O=C(COC(=O)/C=C/c1ccccc1[N+](=O)[O-])Nc1ccc(OCc2ccccc2)cc1", "Potency": "active: 12.6 µM"}, {"smiles": "CN1C(=O)/C(=C\\c2cc(Br)cs2)c2ccccc21", "Potency": "inconclusive: 5.01 µM [activator, partial curve]"}, {"smiles": "O=C(Cn1c(=O)n(Cc2ccco2)c(=O)c2ccccc21)NCC1CCCO1", "note": "(configuration not stated)", "Potency": "inconclusive: 6.31 µM [activator, partial curve, poor fit]"}, {"smiles": "COc1ccc(-c2nnn(CC(=O)N(Cc3ccco3)C(C(=O)NCC3CCCO3)c3ccco3)n2)cc1", "note": "(configuration not stated)", "activity change, positive = activation": "inactive: -8.02%"}, {"smiles": "COc1cccc2c3c(c(=O)[nH]c12)CCC(C)(C)O3", "activity change, positive = activation": "inconclusive: 30.4% [activator]"}, {"smiles": "CCCn1cnc2c1c(=O)n(CCCCC(C)=O)c(=O)n2C", "Potency": "inactive"}, {"smiles": "COc1ccc(/C(N)=N/OC(=O)c2ccc(C)c([N+](=O)[O-])c2)cc1OC", "activity change, positive = activation": "inactive: -6.65%"}, {"smiles": "O=C(Nc1cc(C(F)(F)F)ccc1N1CCOCC1)c1ccc(Br)o1", "activity change, positive = activation": "inactive: -20.7%"}, {"smiles": "C=CCn1c(=O)c2c3c(sc2n2c(Nc4ccc(OC)cc4)nnc12)CCCC3", "activity change, positive = activation": "inactive: 8.68%"}, {"smiles": "COc1ccc2cc3c(N)c(C(=O)N4CCCC4)sc3nc2c1", "Potency": "active: 11.2 µM"}, {"smiles": "N#C/C(=C\\Nc1ccccc1O)c1nc2ccccc2o1", "activity change, positive = activation": "inactive: -9.59% [at 1.84 µM]"}, {"smiles": "CSc1ccc(/C=N/NC(=O)c2ccc(O)cc2)cc1", "Potency": "inconclusive: 17.8 µM [activator, partial curve, poor fit]"}, {"smiles": "Cc1ccc2nc(N/N=C\\c3ccc([N+](=O)[O-])o3)nc(-c3ccccc3)c2c1", "activity change, positive = activation": "inactive: -26.5%"}, {"smiles": "O=C(/C=C/c1ccco1)Nc1ccccn1", "Potency": "active: 8.91 µM"}, {"smiles": "CN1CCN(C(=S)c2cn(Cc3ccccc3)c3ccccc23)CC1", "Potency": "inconclusive: 35.5 µM [activator, single point]"}, {"smiles": "CC(C)(C)c1cc(C(=O)N/N=C/c2ccco2)n[nH]1", "Potency": "inconclusive: 35.5 µM [activator, single point]"}, {"smiles": "Cc1cc(C)cc(NC(=O)Cn2ncn3c(cc4ccccc43)c2=O)c1", "activity change, positive = activation": "inactive: -2.61%"}, {"smiles": "COc1ccc(C(=O)CNc2ccccc2CO)cc1", "Potency": "inconclusive: 35.5 µM [activator, single point]"}, {"smiles": "Cc1ccc2nc(SCn3nnc4ccccc4c3=O)[nH]c2c1", "Potency": "active: 2.82 µM"}, {"smiles": "Cc1ccc(CNC(=O)CSc2nc(C)cs2)cc1", "Potency": "inconclusive: 35.5 µM [activator, single point]"}, {"smiles": "CC(=O)c1ccc(NC(=O)C(C)OC(=O)c2ccc3c(c2)nc(C)n3-c2ccccc2)cc1", "note": "(configuration not stated)", "Potency": "inconclusive: 12.6 µM [activator, partial curve, poor fit]"}, {"smiles": "Cc1ccccc1-c1nc(-c2ccc(NC(=O)c3cccs3)cc2)no1", "activity change, positive = activation": "inactive: -7.8%"}, {"smiles": "Fc1ccc(-c2csc(N3CCC(c4ccccc4)C3)n2)cc1", "note": "(configuration not stated)", "Potency": "inconclusive: 17.8 µM [activator, single point]"}, {"smiles": "CC(C)C(NC(=O)c1ccc(F)cc1)C(=O)Nc1cccnc1", "note": "(configuration not stated)", "activity change, positive = activation": "inactive: 11.8%"}, {"smiles": "Cc1ccc(N/C=C(/C#N)c2ccsc2)cc1", "Potency": "inconclusive: 35.5 µM [activator, single point]"}, {"smiles": "Cc1noc(COc2ccc(OCc3nc(C)no3)cc2)n1", "Potency": "inconclusive: 0.0045 µM [activator, full curve, poor fit]"}, {"smiles": "O=C(c1ccc(CNc2c(NC3CCCCC3)c(=O)c2=O)cc1)N1CCc2ccccc21", "Potency": "inconclusive: 0.0891 µM [activator, full curve, poor fit]"}, {"smiles": "O=C1CCCc2nc(N3CCCCC3)sc21", "Potency": "inconclusive: 14.1 µM [activator, partial curve, poor fit]"}, {"smiles": "Cn1c(C(=O)NCc2ccccc2Cl)cc2sc(Cl)cc21", "Potency": "active: 28.2 µM"}, {"smiles": "COc1ccc(OCc2csc(N)n2)cc1", "Potency": "active: 12.6 µM"}, {"smiles": "CCCC1(C(=O)OC)C=C2C(=C(C)C(=O)C2C)CN1", "note": "(configuration not stated)", "Potency": "inconclusive: 0.631 µM [activator, full curve, poor fit]"}, {"smiles": "CCCCC(=O)NC(=S)Nc1cccc(NC(=O)CC)c1", "activity change, positive = activation": "inactive: -11.4%"}, {"smiles": "CCCCNC(=S)Nc1ccc([N+](=O)[O-])cc1", "Potency": "inconclusive: 3.16 µM [activator, single point]"}, {"smiles": "O=C(CC(c1ccccc1)c1cc(Br)ccc1O)NCCN1CCOCC1", "note": "(configuration not stated)", "Potency": "inconclusive: 0.0045 µM [activator, full curve, poor fit]"}, {"smiles": "COc1cc(C2=NOC(C(=O)NCc3ccco3)C2)cc(OC)c1OC", "note": "(configuration not stated)", "Potency": "inconclusive: 0.1 µM [activator, full curve]"}, {"smiles": "CCOC(=O)c1ccc(NC(=O)Nc2cc(C)on2)cc1", "Potency": "inconclusive: 0.0025 µM [activator, full curve]"}, {"smiles": "Clc1ccc(C2=NNC(=NCc3ccccc3)SC2)cc1", "activity change, positive = activation": "inactive: 16.5%"}, {"smiles": "Cc1sc(NC(=O)c2ccccc2)c(C#N)c1-c1ccccc1", "Potency": "active: 8.91 µM"}, {"smiles": "O=C(Nc1ccccc1)OCCCc1ccccc1", "Potency": "inconclusive: 17.8 µM [activator, single point]"}, {"smiles": "CCn1c(CNC(=O)c2cccc(C)c2)nnc1SCC(=O)Nc1cccc(OC)c1", "Potency": "inconclusive: 10 µM [activator, partial curve]"}, {"smiles": "Cc1ccc(Cl)cc1NC(=O)Cn1nnc2sc3c(c2c1=O)CCC(C(C)(C)C)C3", "note": "(configuration not stated)", "activity change, positive = activation": "inactive: -3.4%"}, {"smiles": "COc1ccc2nc(N=Nc3ccc(O)c4ccccc34)sc2c1", "Potency": "inconclusive: 4.47 µM [activator, single point]"}, {"smiles": "O=C(COC(=O)c1ccccc1)Nc1ccccc1N1CCOCC1", "Potency": "inconclusive: 2.51 µM [activator, partial curve, poor fit]"}, {"smiles": "O=C(NCCSc1ccccc1)c1ccccc1Cl", "Potency": "active: 11.2 µM"}, {"smiles": "COc1ccc(-c2csc(=Nc3ccccc3)n2CCO)cc1", "activity change, positive = activation": "inactive: -71.4%"}, {"smiles": "CCc1nnc(NC(=O)C2CC(=O)N(c3ccc(C)cc3)C2)s1", "note": "(configuration not stated)", "Potency": "inconclusive: 31.6 µM [activator, single point]"}]}]}
